Measured values published in PubChem BioAssay AID1347165 (National Center for Advancing Translational Sciences (NCATS), 2019).
Several values for one entry are separate records, joined by “and”; a condition that tells them apart may be missing. Equal values may be shown once. Out of some 220,000 compounds screened, about 5,700 (2.6%) were called active. Inconclusive results, whose numbers are uncertain, are shown with a selection of clear calls. Calls follow the shape of the dose curve; as a rule, active = well fitted inhibition curve with a large enough effect; inconclusive = small, poorly fitted or top-dose-only effect; inactive = no such curve, though single readings can be large or run the other way. Potencies of inconclusive entries are doubtful fits and often do not repeat.

target: Lysine-specific demethylase 5B (Homo sapiens) (UniProt Q9UGL1); test: Primary screen for KDM5B Histone Demethylases FDH-coupled qHTS; details: FDH-coupled NADH fluorescence (FDH is formaldehyde dehydrogenase); series mostly up to 57.7 µM; also: nearly all actives have a fitted effect of over 70% in size
Summary of the method: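 KDM5BΔAP (200 nM final) in 50 mM HEPES pH 7.5, 0.01% Tween-20 was preincubated 10 min at RT with compound over a concentration range. Substrate mix (H3K4me3 12.5 µM, α-KG 25 µM, Fe²⁺, ascorbate, NAD⁺, FDH) was added, and NADH fluorescence change over 30 min gave dose-response curves.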
Potency is read from the fitted curve at half-maximal effect; tags tell the direction and shape of the fitted curve.

Chain of UniProt Q9UGL1 (Q9UGL1 whole entry, looked up): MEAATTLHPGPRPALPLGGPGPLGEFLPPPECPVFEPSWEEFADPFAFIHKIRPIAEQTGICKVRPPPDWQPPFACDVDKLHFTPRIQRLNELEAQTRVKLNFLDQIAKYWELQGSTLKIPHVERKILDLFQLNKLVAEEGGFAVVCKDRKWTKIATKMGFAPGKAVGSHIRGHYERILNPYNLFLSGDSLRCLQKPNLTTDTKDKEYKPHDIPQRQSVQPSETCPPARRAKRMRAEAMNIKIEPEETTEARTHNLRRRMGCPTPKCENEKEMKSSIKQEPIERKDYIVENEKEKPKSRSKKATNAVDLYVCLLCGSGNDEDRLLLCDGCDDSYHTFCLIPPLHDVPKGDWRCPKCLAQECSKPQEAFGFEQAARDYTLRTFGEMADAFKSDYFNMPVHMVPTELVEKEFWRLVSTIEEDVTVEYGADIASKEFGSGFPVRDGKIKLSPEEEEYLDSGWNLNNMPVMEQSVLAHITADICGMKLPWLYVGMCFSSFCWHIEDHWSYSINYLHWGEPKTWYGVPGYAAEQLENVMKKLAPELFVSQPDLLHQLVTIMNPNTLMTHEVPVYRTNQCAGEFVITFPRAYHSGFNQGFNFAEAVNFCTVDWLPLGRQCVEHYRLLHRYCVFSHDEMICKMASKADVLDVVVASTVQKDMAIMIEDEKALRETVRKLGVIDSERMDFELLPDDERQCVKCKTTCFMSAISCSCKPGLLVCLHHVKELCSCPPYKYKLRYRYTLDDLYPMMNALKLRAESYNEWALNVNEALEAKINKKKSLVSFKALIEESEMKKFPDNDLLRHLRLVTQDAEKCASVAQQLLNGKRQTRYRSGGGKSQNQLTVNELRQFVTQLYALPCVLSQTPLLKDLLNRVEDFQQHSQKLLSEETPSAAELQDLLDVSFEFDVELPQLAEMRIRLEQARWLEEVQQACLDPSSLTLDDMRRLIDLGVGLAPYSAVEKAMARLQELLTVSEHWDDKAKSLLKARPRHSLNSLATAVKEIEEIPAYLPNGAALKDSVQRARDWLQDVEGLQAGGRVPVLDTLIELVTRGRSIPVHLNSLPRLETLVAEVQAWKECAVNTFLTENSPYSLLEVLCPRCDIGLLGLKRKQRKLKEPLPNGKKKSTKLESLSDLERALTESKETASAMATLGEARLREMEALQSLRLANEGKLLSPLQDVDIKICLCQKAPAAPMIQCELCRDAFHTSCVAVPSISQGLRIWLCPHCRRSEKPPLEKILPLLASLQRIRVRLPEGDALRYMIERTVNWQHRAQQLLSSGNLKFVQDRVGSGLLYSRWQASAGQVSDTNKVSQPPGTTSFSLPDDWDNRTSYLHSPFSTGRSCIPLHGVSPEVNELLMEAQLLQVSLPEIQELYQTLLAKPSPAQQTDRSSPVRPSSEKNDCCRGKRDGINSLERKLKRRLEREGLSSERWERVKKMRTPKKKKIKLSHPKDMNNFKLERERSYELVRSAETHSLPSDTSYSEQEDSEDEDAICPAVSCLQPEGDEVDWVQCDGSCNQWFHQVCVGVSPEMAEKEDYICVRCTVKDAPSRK

With `O=c1[nH]nc(SCc2nc(-c3cccc(C(F)(F)F)c3)no2)n2nc(-c3ccco3)cc12` as the compound, how does the Potency read?
The Potency was “inactive”.

Which Potency does the source give for `COc1ccccc1CNC(=O)c1cc2cn(C3CC3)cc2s1` here?
Its Potency is inconclusive: 10 µM [inhibitor, partial curve].

With `CCn1cc(CN2CCC(c3[nH]ncc3-c3ccccc3C)CC2)cn1` as the compound, how does the Potency read?
Its Potency is “inactive”.

How did the Potency turn out when `C[C@H]1[C@@H]2[C@@H](O)C([C@H](C)C(=O)NCc3ccco3)CC[C@@]2(C)CC[C@@H]1NC(=O)c1ccccn1` (stereo not given in full) was run?
The Potency was inconclusive: 17.8 µM [inhibitor, partial curve, poor fit].

`COc1ccc(/C=C2\N=C(C)OC2=O)cc1OC(C)=O` was tested. Which Potency did it give?
The Potency was inconclusive: 25.1 µM [inhibitor, single point].

With `CCOCCCNC(=O)C(c1ccc(OC)cc1)N(Cc1ccc2c(c1)OCO2)C(=O)c1ccccc1O` (stereo not given) as the compound, how does the Potency read?
The Potency was inconclusive: 15.8 µM [inhibitor, partial curve, poor fit].

For `Cc1ccccc1C(=O)Nc1c(C)nc(Nc2ccccc2)nc1Nc1ccccc1`, which Potency is on record?
The Potency was inconclusive: 22.4 µM [inhibitor, single point].

`CN(CC(=O)NC(=O)NCc1ccccc1)C1CCCc2ccccc21` (stereo not given) was tested. Which Potency did it give?
The Potency was inconclusive: 39.8 µM [inhibitor, single point].

Which Potency does the source give for `CCCc1cc(=O)oc2cc(OCC(=O)NCCCO)ccc12` here?
Its Potency is inconclusive: 25.1 µM [inhibitor, partial curve, poor fit].

How did the Potency turn out when `Cc1ccc(CNC(=O)Cc2nn(C)c(=O)c3ccccc23)cc1F` was run?
Its Potency is “inactive”.

How did the Potency turn out when `CCOc1ccc(N2C(=O)C(=O)/C(=C(/O)c3ccccc3)C2c2ccccc2[N+](=O)[O-])cc1` (stereo not given) was run?
The Potency was inconclusive: 39.8 µM [inhibitor, single point].

Which Potency does the source give for `COc1ccc(NC(=O)c2ccc3c(SCC(=O)O)c4c(nc3c2)CCC4)c(OC)c1` here?
The Potency was inconclusive: 31.6 µM [inhibitor, partial curve, poor fit].

With `CCOc1ccccc1N1CC(c2nc3ccccc3n2Cc2c(C)cc(C)cc2C)CC1=O` (stereo not given) as the compound, how does the Potency read?
Its Potency is inconclusive: 17.8 µM [inhibitor, partial curve, poor fit].

For `CS(=O)(=O)c1ncc(Cl)c(C(=O)Nc2ccc(OC(F)F)cc2)n1`, which Potency is on record?
The Potency was inconclusive: 39.8 µM [inhibitor, single point].

For `COc1ccc(-c2nc(SCc3cc(=O)c4cc(C)ccc4[nH]3)n[nH]2)cc1`, which Potency is on record?
Its Potency is inconclusive: 8.91 µM [inhibitor, partial curve, poor fit].

Which Potency does the source give for `CCC(C)c1ccccc1NS(=O)(=O)c1cnn(CC)c1` (stereo not given) here?
Its Potency is “inactive”.

With `CCCN(CCC)CCNC(=O)c1ccc2c(c1)NC(=O)C(CS(=O)(=O)Cc1cccc(Br)c1)N2` (stereo not given) as the compound, how does the Potency read?
The Potency was inconclusive: 12.6 µM [inhibitor, partial curve, poor fit].

How did the Potency turn out when `COc1cccc(CCC(=O)N2CCCC(Cc3nc(C4CCOCC4)no3)C2)c1` (stereo not given) was run?
The Potency was inconclusive: 22.4 µM [inhibitor, partial curve].

With `Cc1sc2ncn(CC(=O)N3CCN(c4cccc(Cl)c4)CC3)c(=O)c2c1S(=O)(=O)N1CCN(c2ncccn2)CC1` as the compound, how does the Potency read?
The Potency was inconclusive: 15.8 µM [inhibitor, partial curve, poor fit].

With `O=C(O)/C=C/c1cccc(N=Cc2ccc(N3CCOCC3)cc2)c1` as the compound, how does the Potency read?
Its Potency is inconclusive: 39.8 µM [inhibitor, single point].

With `COC(=O)c1cc(NC(=O)c2ccc(OC(F)F)c(OC)c2)c(F)cc1F` as the compound, how does the Potency read?
Its Potency is “inactive”.

With `Cc1nc2c(c(-c3ccc(O)cc3)n1)CN(Cc1ccsc1)CC2` as the compound, how does the Potency read?
The Potency was inconclusive: 20 µM [inhibitor, partial curve, poor fit].

For `O=C(CSc1nc2ccccc2s1)Nc1ccc(F)c(F)c1F`, which Potency is on record?
The Potency was “inactive”.

For `Cc1nc2ncccn2c1C(=O)N1CCn2nc(CO)cc2C1`, which Potency is on record?
Its Potency is active: 31.6 µM.

For `Cc1nc(C2(C)CCN(C(=O)CCCC(=O)n3nc(C)c4ccccc43)CC2)no1`, which Potency is on record?
The Potency was “inactive”.

`CN1C[C@@H](NC(=O)c2ccc(C(C)(C)C)cc2)C[C@H]1c1nc(-c2ccc3c(c2)OCO3)no1` was tested. Which Potency did it give?
The Potency was active: 35.5 µM.

Which Potency does the source give for `O=C(CCc1nc2ccccc2c(=O)[nH]1)N1CCCC1CC1CCCCC1` (stereo not given) here?
Its Potency is “inactive”.

How did the Potency turn out when `CC(Cc1ccccc1)NC(=O)C1CCC(C)(C(=O)O)C1(C)C` (stereo not given) was run?
Its Potency is “inactive”.

For `O=C1c2c(nc(COc3ccc4c(c3)OCO4)n2Cc2ccccc2)NCCN1Cc1ccccc1`, which Potency is on record?
Its Potency is inconclusive: 39.8 µM [inhibitor, single point].

How did the Potency turn out when `CC(=O)Nc1ccc(S(=O)(=O)Nc2cc(-c3cn4ccccc4n3)ccc2C)cc1` was run?
The Potency was inconclusive: 31.6 µM [inhibitor, partial curve, poor fit].

How did the Potency turn out when `CS(=O)(=O)N1CCCC1c1noc(CCC(=O)O)n1` (stereo not given) was run?
Its Potency is “inactive”.

With `CCCOc1cccc(C2C(C(=O)c3ccc(C)o3)=C(O)C(=O)N2c2nc(C)c(C(C)=O)s2)c1` (stereo not given) as the compound, how does the Potency read?
Its Potency is inconclusive: 10 µM [inhibitor, partial curve, poor fit].

For `O=C(O)CCn1ncc2cc(OCC3CCN(C(=O)CC4CC4)CC3)ccc21`, which Potency is on record?
The Potency was inconclusive: 35.5 µM [inhibitor, single point].

With `COc1ccc(/C=C/c2nc(C#N)c(NCCc3ccccc3)o2)cc1OC` as the compound, how does the Potency read?
The Potency was inconclusive: 31.6 µM [inhibitor, partial curve, poor fit].

How did the Potency turn out when `CC(Oc1ccc2ccc(=O)oc2c1)C(=O)NCCc1ccc(F)cc1` (stereo not given) was run?
The Potency was “inactive”.

`CNc1ncc(C(=O)N2CCCC(c3[nH]ncc3-c3ccc(F)cc3)C2)cn1` (stereo not given) was tested. Which Potency did it give?
The Potency was inconclusive: 25.1 µM [inhibitor, single point].

`O=C(C[C@H]1NC(=O)c2ccccc2NC1=O)Nc1nc(-c2ccccn2)cs1` was tested. Which Potency did it give?
Its Potency is inconclusive: 31.6 µM [inhibitor, partial curve, poor fit].

For `Cc1ccc(C(=O)Cn2cnc3c2c(=O)n(C)c(=O)n3C)cc1C`, which Potency is on record?
Its Potency is inconclusive: 25.1 µM [inhibitor, single point].

How did the Potency turn out when `NC(=O)N\N=C/C=C/C=C/c1ccc(F)cc1` was run?
The Potency was inconclusive: 39.8 µM [inhibitor, single point].

How did the Potency turn out when `CCOC(=O)c1cc2c(=O)n3ccccc3nc2n(Cc2ccco2)c1=NC(=O)c1c(F)cccc1Cl` was run?
Its Potency is inconclusive: 3.98 µM [inhibitor, full curve, poor fit].

Which Potency does the source give for `N#CCCN(C(=O)CSc1nc(CN2CCOCC2)nc2ccccc12)c1ccc(F)cc1` here?
Its Potency is “inactive”.

How did the Potency turn out when `COc1ccc(NC(=O)Cn2c(=O)n(-c3ccc(C)cc3)c(=O)c3c2cnn3C)cc1` was run?
The Potency was “inactive”.

`O=C(Nc1ccc2nc(SCC(=O)N3CCCC3)sc2c1)c1cccc(Cl)c1` was tested. Which Potency did it give?
The Potency was inconclusive: 39.8 µM [inhibitor, single point].

Which Potency does the source give for `CCCCc1ccc(NC(=S)N(Cc2ccccc2)Cc2ccccc2)cc1` here?
The Potency was “inactive”.

How did the Potency turn out when `Cc1cc(N2CCOCC2)n2ncc(-c3ccc(Cl)cc3)c2n1` was run?
The Potency was inconclusive: 35.5 µM [inhibitor, partial curve, poor fit].

For `O=C(NCc1nnc2c(-c3nc(C4CC4)no3)cccn12)c1ccccc1Cl`, which Potency is on record?
Its Potency is inconclusive: 25.1 µM [inhibitor, partial curve, poor fit].

For `COc1cc(C(=O)Nc2ccc(N3CCCC3)nc2)cc2c1OCCO2`, which Potency is on record?
Its Potency is “inactive”.

How did the Potency turn out when `CCCc1cc(=O)oc2cc(OS(=O)(=O)c3c(C)c(C)cc(C)c3C)ccc12` was run?
Its Potency is inconclusive: 28.2 µM [inhibitor, partial curve, poor fit].

With `O=C1COc2ccc(Nc3ccccc3F)nc2CN1Cc1ccccc1F` as the compound, how does the Potency read?
The Potency was active: 35.5 µM.

Which Potency does the source give for `O=C(O)C[C@@H]1CCN(C(=O)c2ccc(C(F)(F)F)cc2)C[C@@H]1CCN1CCN(c2ccccn2)CC1` here?
The Potency was inconclusive: 28.2 µM [inhibitor, single point].

`Cc1sc2ncn(CC(=O)N3CCN(c4ccc(Cl)cc4)CC3)c(=O)c2c1S(=O)(=O)N1CCN(c2ncccn2)CC1` was tested. Which Potency did it give?
The Potency was inconclusive: 35.5 µM [inhibitor, single point].

For `COc1cc(OC)cc(C(=O)N2CCC(n3cc(-c4nc(C(C)C)no4)nn3)CC2)c1`, which Potency is on record?
The Potency was “inactive”.

`Cc1cnc(CCNC(=O)c2ccco2)n1C1CCC1` was tested. Which Potency did it give?
The Potency was “inactive”.

With `COc1ccc(OC)c(NC(=O)Nc2cccc(-c3ccc(N4CCCCC4)nn3)c2)c1` as the compound, how does the Potency read?
The Potency was “inactive”.

Which Potency does the source give for `Cc1cccn2c(=O)c3cc(C(=O)NCc4cccnc4)c(=N)n(CCCO)c3nc12` here?
The Potency was inconclusive: 3.55 µM [inhibitor, full curve, poor fit].

With `CNC(=O)NC[C@H]1CCN(Cc2ccccc2)C[C@H]1N(C)C` as the compound, how does the Potency read?
The Potency was inconclusive: 17.8 µM [inhibitor, single point].

Which Potency does the source give for `Cc1ccc(CN2CCCC(CNC(=O)NC(C)C)C2)cc1C` (stereo not given) here?
Its Potency is “inactive”.

Which Potency does the source give for `CC1(COc2ccccc2)COc2ccc(C(=O)NCc3ccc4c(c3)OCO4)cc2N1` (stereo not given) here?
Its Potency is inconclusive: 56.2 µM [inhibitor, single point].

How did the Potency turn out when `O=C(NCc1ccccc1)c1nc(S(=O)(=O)Cc2ccccc2)ncc1Cl` was run?
The Potency was inconclusive: 25.1 µM [inhibitor, partial curve, poor fit] and inconclusive: 39.8 µM [inhibitor, single point].

Which Potency does the source give for `COc1ccccc1Oc1c(C)oc2cc(OCC(=O)Nc3ccc(C)cc3C)ccc2c1=O` here?
Its Potency is “inactive”.

With `Cc1ccc(-c2cnc(CCC(=O)Nc3cc(Cl)c(N)c(Cl)c3)o2)cc1C` as the compound, how does the Potency read?
The Potency was “inactive”.

How did the Potency turn out when `N#Cc1ccc(CN2CCC(c3nc4ncccc4[nH]3)C2)cc1` (stereo not given) was run?
The Potency was inconclusive: 100 µM [inhibitor, partial curve] and inconclusive: 31.6 µM [inhibitor, partial curve].

How did the Potency turn out when `COCCOC1CCN(C(=O)COc2ccc(C)cc2)CC1` was run?
The Potency was “inactive”.

With `COc1ccc(CN2Cc3cc(NC(=O)Cc4ccc(F)cc4)ccc3OCC2=O)c(OC)c1` as the compound, how does the Potency read?
Its Potency is “inactive”.

With `CCn1ccc(C(=O)NCC2Cn3cccc3CN2Cc2ccccc2)n1` (stereo not given) as the compound, how does the Potency read?
The Potency was active: 28.2 µM.
